{"source": "PubChem BioAssay AID894", "about": "(National Center for Advancing Translational Sciences (NCATS), 2007)", "note": "Among all 150,000 compounds or so, about 6,500 (4.3%) were called active. This list was built around the results that the source calls inconclusive (neither active nor inactive); the mix of calls is not that of the screen. The call rests on the fitted dose curve; in most records, active means well fitted inhibition curve with a large enough effect (not every such curve was filed as active); inconclusive means small, poorly fitted or top-dose-only effect, or another doubt; inactive means no such curve, though single readings can be large or run the other way. No potency is given beside an inconclusive call; the fits are too rough. On the % scale 0 is the no-effect control and ±100 the full control effect; potency means the concentration at half of the fitted maximal effect; tags describe the fitted curve by direction and shape.", "data": [{"biological_target": "15-hydroxyprostaglandin dehydrogenase [NAD(+)] (Homo sapiens) (UniProt P15428)", "sequence (P15428 whole entry, looked up)": "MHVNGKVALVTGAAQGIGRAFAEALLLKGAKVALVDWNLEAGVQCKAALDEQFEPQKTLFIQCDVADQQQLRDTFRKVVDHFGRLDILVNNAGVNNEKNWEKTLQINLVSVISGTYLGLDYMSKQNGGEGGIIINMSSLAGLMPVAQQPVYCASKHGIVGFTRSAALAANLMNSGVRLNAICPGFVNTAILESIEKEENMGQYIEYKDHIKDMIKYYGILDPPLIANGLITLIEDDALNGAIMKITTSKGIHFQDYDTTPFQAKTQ", "assay": "qHTS Assay for Inhibitors of HPGD (15-Hydroxyprostaglandin Dehydrogenase)", "conditions": "purified HPGD, NADH fluorescence kinetic, PGE2 substrate; activity change, negative = inhibition: active compounds read low", "summary_of_the_method": "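NADH formation kinetics: reaction with 30 uM PGE2 and 1 mM NAD+ (final), 20 nM enzyme, Tris-HCl pH 8 with Tween 20, after 15 min compound preincubation at room temperature. Fluorescence change, last versus first of five reads.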", "values": [{"smiles": "Cc1ccc(S(=O)(=O)C2(C(=O)N3CCCC(C)C3)CC2)cc1", "note": "(configuration not stated)", "Potency": "active: 25.1 µM"}, {"smiles": "O=C(NC1CCCCCCC1)c1ccccc1O", "Potency": "inconclusive [inhibitor, partial curve]"}, {"smiles": "Cc1c(Cl)cccc1NC(=S)N1CCN(Cc2ccc3c(c2)OCO3)CC1", "activity change, negative = inhibition": "inactive: -15%"}, {"smiles": "COCC(=O)Nc1nc2ccccc2s1", "activity change, negative = inhibition": "inactive: -3.1%"}, {"smiles": "CN1CCN(C(=O)c2ccc3ccccc3c2)CC1", "Potency": "active: 15.8 µM"}, {"smiles": "FC(F)(F)c1nc2ccccc2c2nc3ccccc3n12", "Potency": "inconclusive [inhibitor, single point]"}, {"smiles": "Oc1cc2c(cc1O)[C@@H](c1ccccc1)CNCC2", "Potency": "active: 20 µM"}, {"smiles": "Fc1cccc(Cl)c1CSc1nnc(COc2cccc3cccnc23)o1", "Potency": "inconclusive [inhibitor, partial curve]"}, {"smiles": "COCCNC(=S)N/N=C(\\C)c1cccc([N+](=O)[O-])c1", "activity change, negative = inhibition": "inactive: -11.4%"}, {"smiles": "CCCCOc1c(Br)cc(/C=N/O)cc1OCC", "activity change, negative = inhibition": "inactive: -7.88%"}, {"smiles": "Brc1c(CSc2nc3ccccc3o2)nc2ncccn12", "Potency": "inconclusive [inhibitor, partial curve]"}, {"smiles": "Cn1cc(-c2nc3ccccc3[nH]2)c2ccccc21", "Potency": "inconclusive [inhibitor, partial curve]"}, {"smiles": "Cc1cc(N2CCN(C3CCCC3)CC2)n2c(nc3ccccc32)c1C#N", "Potency": "inconclusive [inhibitor, partial curve]"}, {"smiles": "O=C(COC(=O)Cc1ccsc1)NCc1ccc(Cl)cc1", "Potency": "active: 28.2 µM"}, {"smiles": "CC(=O)Nc1ccc(S(=O)(=O)Nc2nc3ccccc3nc2Sc2nncn2C)cc1", "Potency": "inconclusive [inhibitor, partial curve, poor fit]"}, {"smiles": "Cc1ccc(-n2c(-c3ccccc3)n[nH]c2=S)cc1", "Potency": "inconclusive [inhibitor, partial curve]"}, {"smiles": "COc1cc(C(=O)Nc2nc3ccc4nc(C)sc4c3s2)cc(OC)c1OC", "Potency": "inconclusive [inhibitor, partial curve]"}, {"smiles": "Cc1c(Cl)cccc1Nc1ccccc1C(=O)O", "Potency": "active: 14.1 µM"}, {"smiles": "Oc1ccc2ccccc2c1/C=N/Nc1ccccc1", "Potency": "inconclusive [inhibitor, single point]"}, {"smiles": "O=C(Cn1c(=O)c2c(ncn2Cc2ccccc2)n(Cc2ccccc2)c1=O)N1CCCC1", "Potency": "inconclusive [inhibitor, partial curve, poor fit]"}, {"smiles": "Cc1ccc(S(=O)(=O)NCC(=O)N2CCN(c3ccccc3F)CC2)cc1", "activity change, negative = inhibition": "inactive: -7.91%"}, {"smiles": "O=C(N1CCOCC1)C(F)(F)C(=O)N1CCOCC1", "activity change, negative = inhibition": "inactive: -3.3%"}]}]}
